# In the supplement of paper PMC8728848:
# Some of the results follow.
# B1: DC-ASGPR Long (Homo sapiens) (protein)
# chain: MTRTYENFQYLENKVKVQGFKNGPLPLQSLLQRLRSGPCHLLLSLGLGLLLLVIICVVGFQNSKFQRDLVTLRTDFSNFTSNTVAEIQALTSQGSSLEETIASLKAEVEGFKQERQAGVSELQEHTTQKAHLGHCPHCPSVCVPVHSEMLLRVQQLVQDLKKLTCQVATLNNNASTEGTCCPVNWVEHQDSCYWFSHSGMSWAEAEKYCQLKNAHLVVINSREEQNFVQKYLGSAYTWMGLSDPEGAWKWVDGTDYATGFQNWKPGQPDDWQGHGLGGGEDCAHFHPDGGWNDDVCQRPYHWVCEAGLGQTSQESH
# Tests used:
# Test in all cases: glycan array binding signal (z-score within array); higher = stronger binding
# Conditions in all cases: glycan notation: IUPAC condensed, linker removed
# [1] = molecular target: GlcNAc(b1-3)GalNAc
# Outline: (§1)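 Glycan array data were curated from 3228 arrays in the Consortium for Functional Glycomics database and kept only where the protein sequence was available. Glycan names were converted to IUPAC-condensed notation, and columns mapping to the same glycan were averaged. The binding signal is a within-array Z-score, averaged across arrays of the same protein sequence at different concentrations or buffers and across linkers. Negative Z-scores can be read as non-binding.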
# [2] = molecular target: GlcNAc(b1-3)Man
# Outline: as §1
# [3] = molecular target: GlcNAc(b1-3)[GlcNAc(b1-4)][GlcNAc(b1-6)]GlcNAc
# Outline: as §1
# [4] = molecular target: GlcNAc(b1-3)[GlcNAc(b1-6)]Gal(b1-4)GlcNAc
# Outline: as §1
# [5] = molecular target: GlcNAc(b1-3)[GlcNAc(b1-6)]GalNAc
# Outline: as §1
# [6] = molecular target: GlcNAc(b1-4)Gal(b1-4)GlcNAc
# Outline: as §1
# [7] = molecular target: GlcNAc(b1-4)GlcNAc
# Outline: as §1
# [8] = molecular target: GlcNAc(b1-4)GlcNAc(b1-4)GlcNAc
# Outline: as §1
# [9] = molecular target: GlcNAc(b1-4)GlcNAc(b1-4)GlcNAc(b1-4)GlcNAc(b1-4)GlcNAc
# Outline: as §1
# [10] = molecular target: GlcNAc(b1-4)GlcNAc(b1-4)GlcNAc(b1-4)GlcNAc(b1-4)GlcNAc(b1-4)GlcNAc
# Outline: as §1
# [11] = molecular target: GlcNAc(b1-4)[GlcNAc(b1-6)]GalNAc
# Outline: as §1
# [12] = molecular target: GlcNAc(b1-6)Gal(b1-4)GlcNAc
# Outline: as §1
# [13] = molecular target: GlcNAc(b1-6)GalNAc
# Outline: as §1
# [14] = molecular target: GlcNAc6S(b1-3)Gal(b1-4)GlcNAc
# Outline: as §1
# [15] = molecular target: Kdn(a2-3)Gal(b1-3)GalNAc
# Outline: as §1
# [16] = molecular target: Kdn(a2-3)Gal(b1-3)GlcNAc
# Outline: as §1
# [17] = molecular target: Kdn(a2-3)Gal(b1-4)Glc
# Outline: as §1
# [18] = molecular target: Kdn(a2-3)Gal(b1-4)GlcNAc
# Outline: as §1
# [19] = molecular target: Kdn(a2-3)Gal(b1-4)[Fuc(a1-3)]GlcNAc
# Outline: as §1
# [20] = molecular target: Kdn(a2-6)Gal(b1-4)GlcNAc
# Outline: as §1
# [21] = molecular target: Man(a1-2)Man(a1-2)Man(a1-3)Man
# Outline: as §1
# [22] = molecular target: Man(a1-2)Man(a1-2)Man(a1-6)[Man(a1-3)]Man
# Outline: as §1
# [23] = molecular target: Man(a1-2)Man(a1-3)Man
# Outline: as §1
# [24] = molecular target: Man(a1-2)Man(a1-3)[Man(a1-2)Man(a1-6)]Man
# Outline: as §1
# [25] = molecular target: Man(a1-2)Man(a1-3)[Man(a1-2)Man(a1-6)]Man(a1-6)[Man(a1-2)Man(a1-2)Man(a1-3)]Man
# Outline: as §1
# [26] = molecular target: Man(a1-2)Man(a1-3)[Man(a1-2)Man(a1-6)]Man(a1-6)[Man(a1-2)Man(a1-2)Man(a1-3)]Man(b1-4)GlcNAc(b1-4)GlcNAc
# Outline: as §1
# [27] = molecular target: Man(a1-2)Man(a1-3)[Man(a1-6)]Man(a1-6)[Man(a1-2)Man(a1-3)]Man(b1-4)GlcNAc(b1-4)GlcNAc
# Outline: as §1
# [28] = molecular target: Man(a1-2)Man(a1-6)[Man(a1-3)]Man(a1-6)[Man(a1-2)Man(a1-2)Man(a1-3)]Man
# Outline: as §1
# [29] = molecular target: Man(a1-2)Man(a1-6)[Man(a1-3)]Man(a1-6)[Man(a1-2)Man(a1-2)Man(a1-3)]Man(b1-4)GlcNAc(b1-4)GlcNAc
# Outline: as §1
# [30] = molecular target: Man(a1-3)[Man(a1-6)]Man
# Outline: as §1
# [31] = molecular target: Man(a1-3)[Man(a1-6)]Man(a1-6)[Man(a1-2)Man(a1-3)]Man(b1-4)GlcNAc(b1-4)GlcNAc
# Outline: as §1
# [32] = molecular target: Man(a1-3)[Man(a1-6)]Man(a1-6)[Man(a1-3)]Man
# Outline: as §1
# [33] = molecular target: Man(a1-3)[Man(a1-6)]Man(a1-6)[Man(a1-3)]Man(b1-4)GlcNAc(b1-4)GlcNAc
# Outline: as §1
# [34] = molecular target: Man(a1-3)[Man(a1-6)]Man(b1-4)GlcNAc(b1-4)GlcNAc
# Outline: as §1
# [35] = molecular target: Man(a1-3)[Man(a1-6)]Man(b1-4)GlcNAc(b1-4)[Fuc(a1-6)]GlcNAc
# Outline: as §1
# [36] = molecular target: Man(a1-6)Man
# Outline: as §1
# [37] = molecular target: Man(b1-4)GlcNAc
# Outline: as §1
# [38] = molecular target: MurNAc(b1-4)GlcNAc
# Outline: as §1
binder,measurement,setting,value
B1,glycan array binding signal (z-score),[1],-0.555
same,glycan array binding signal (z-score),[2],-0.414
same,glycan array binding signal (z-score),[3],-0.508
same,glycan array binding signal (z-score),[4],-0.555
same,glycan array binding signal (z-score),[5],-0.474
same,glycan array binding signal (z-score),[6],-0.763
same,glycan array binding signal (z-score),[7],-0.48
same,glycan array binding signal (z-score),[8],-0.382
same,glycan array binding signal (z-score),[9],-0.261
same,glycan array binding signal (z-score),[10],-0.618
same,glycan array binding signal (z-score),[11],0.053
same,glycan array binding signal (z-score),[12],-0.211
same,glycan array binding signal (z-score),[13],3.43
same,glycan array binding signal (z-score),[14],-0.271
same,glycan array binding signal (z-score),[15],-0.216
same,glycan array binding signal (z-score),[16],-0.092
same,glycan array binding signal (z-score),[17],-0.385
same,glycan array binding signal (z-score),[18],-0.453
same,glycan array binding signal (z-score),[19],-0.446
same,glycan array binding signal (z-score),[20],-0.25
same,glycan array binding signal (z-score),[21],-0.452
same,glycan array binding signal (z-score),[22],-0.543
same,glycan array binding signal (z-score),[23],-0.418
same,glycan array binding signal (z-score),[24],-0.157
same,glycan array binding signal (z-score),[25],-0.248
same,glycan array binding signal (z-score),[26],-0.746
same,glycan array binding signal (z-score),[27],-0.248
same,glycan array binding signal (z-score),[28],-0.394
same,glycan array binding signal (z-score),[29],-0.345
same,glycan array binding signal (z-score),[30],-0.382
same,glycan array binding signal (z-score),[31],-0.307
same,glycan array binding signal (z-score),[32],-0.464
same,glycan array binding signal (z-score),[33],-0.577
same,glycan array binding signal (z-score),[34],0.332
same,glycan array binding signal (z-score),[35],0.254
same,glycan array binding signal (z-score),[36],-0.453
same,glycan array binding signal (z-score),[37],-0.274
same,glycan array binding signal (z-score),[38],-0.442
